The campaign covered roughly 110,000 compounds. About 230 (0.21%) showed an effect of 50% or more. The list shows a part of the results.
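Note: 30 min substrate incubation versus DMSO and 10 µM JCP410 controls.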

The experiment deals with DPAP1 (Plasmodium falciparum, UniProt Q8IIJ9). The experiment is described as follows: primary screen, percent inhibition; read by cleavage of a fluorogenic dipeptide substrate; higher = more effect of the substance. More on the design: species or system P. falciparum D10 trophozoite lysates; single well.
DPAP1, sequence (Q8IIJ9 whole entry, looked up): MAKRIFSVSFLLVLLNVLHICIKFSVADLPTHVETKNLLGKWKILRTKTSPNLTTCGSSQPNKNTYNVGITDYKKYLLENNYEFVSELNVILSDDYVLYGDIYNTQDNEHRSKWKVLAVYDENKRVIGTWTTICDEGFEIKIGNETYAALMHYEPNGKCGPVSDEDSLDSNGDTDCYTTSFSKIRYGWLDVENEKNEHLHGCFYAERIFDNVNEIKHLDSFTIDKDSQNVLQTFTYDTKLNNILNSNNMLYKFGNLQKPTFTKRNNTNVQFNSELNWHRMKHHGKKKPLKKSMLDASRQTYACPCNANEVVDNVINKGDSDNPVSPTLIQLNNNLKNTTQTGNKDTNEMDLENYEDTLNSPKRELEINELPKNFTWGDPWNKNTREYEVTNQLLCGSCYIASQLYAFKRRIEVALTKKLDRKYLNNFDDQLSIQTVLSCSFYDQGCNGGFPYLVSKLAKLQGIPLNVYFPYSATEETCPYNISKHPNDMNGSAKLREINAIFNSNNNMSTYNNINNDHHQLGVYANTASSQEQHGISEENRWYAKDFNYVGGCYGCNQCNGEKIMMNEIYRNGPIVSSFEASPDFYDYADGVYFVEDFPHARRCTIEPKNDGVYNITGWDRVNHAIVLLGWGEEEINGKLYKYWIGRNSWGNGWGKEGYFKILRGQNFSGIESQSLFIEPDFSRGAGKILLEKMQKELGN
On to `C=C(C)C(=O)N1CCC(C(O)(c2ccccc2)c2ccccc2)CC1`, for which the “% Inhibition @ 10 uM” value is reported as 1.88%. The same measure for `CC(C#N)(Cc1ccccc1)Nc1ccccc1` (stereo not shown): -5%. Consider `COc1ccc(C2CC(C(F)(F)F)n3nc(C(=O)Nc4cccnc4)cc3N2)cc1` (stereo not shown), for which the “% Inhibition @ 10 uM” value is 4.86%. To `O=c1[nH]c2ccccc2n2/c(=N/c3ccccc3)sc(-c3ccccc3)c12` belongs -4.01%; to `O=S1(=O)CCC(S(=O)(=O)N2CCCCC2)C1` (stereo not shown), 5.64%; to `NC(=O)c1cc(S(=O)(=O)NCCSCc2ccco2)cs1`, -3.23%. The same measure for `COC(=O)C1=C(N)Oc2cc(C)n(CCCn3ccnc3)c(=O)c2C1c1ccc(Cl)cc1` (stereo not shown): 5.5%; for `Cc1[nH]nc2c1C(c1ccc(OCc3cccc4ccccc34)cc1)C(C#N)=C(N)O2` (stereo not shown): -3.46%; for `Cc1nc2sccn2c1-c1csc(Nc2ccc(N)cc2)n1`: 2.65%. The same measure for `C=CCOc1cccc(C2c3c(oc4ccc(F)cc4c3=O)C(=O)N2c2nc(C)c(C(C)=O)s2)c1` (stereo not shown): 3.73%; for `O=S(=O)(NCCSCc1ccco1)c1ccc(-c2ccc(O)nn2)s1`: -4.33%; for `COc1c(Cl)cc(C(=O)N(Cc2sccc2C)C2CCS(=O)(=O)C2)cc1Cl` (stereo not shown): -4.64%. `CCOC(=O)c1cc(C)n(CC2CCC(C(=O)NCc3ccc(F)cc3)CC2)c1C` (stereo not shown): the “% Inhibition @ 10 uM” value was -1.3%. The same measure for `CCN(C(=O)c1cc(OC)cc(OC)c1)c1nc(-c2ccc(C)cc2)cs1`: 1.22%. The same measure for `O=C(CCCCC(=O)Nc1ccccc1Cl)Nc1ccccc1Cl`: -5.96%; for `CCOC(=O)C1=C(CS(=O)(=O)c2ccc(C)c(C)c2)NC(=O)NC1c1ccc(C(C)C)cc1` (stereo not shown): -0.431%. To `O=C(CCCCn1c(=O)[nH]c2ccsc2c1=O)N1CCC(N2CCCCC2)CC1` belongs 0.505%.

As to `O=C(NCC12CC3CC(CC(C3)C1)C2)c1ccc(S(=O)(=O)c2ccccc2)cc1`, the “% Inhibition @ 10 uM” value was -6.28%. To `CCc1ccc(CNc2nc3nc4c(c(O)n3n2)CCC4)cc1` belongs -2.4%; to `CC(C)C(=O)NC(C)C(c1cccs1)N1CCN(C)CC1` (stereo not shown), -2.88%; to `CN(CC(=O)NCCN1CCCCCC1)S(=O)(=O)c1cccc2nsnc12`, 2%.

For `CN1CCN(CCCOc2cc(Cl)ccc2Cl)CC1`, the “% Inhibition @ 10 uM” value is listed as -9.36%. For `CCOc1ccc(/C=C2\C(=O)NC(C)=C2C(=O)OC)cc1`, the “% Inhibition @ 10 uM” value is -3.5%. The same measure for `Cc1cc(O)nc2nc(O)sc12`: -0.92%; for `Cc1cc(/C=C2/SC(=S)NC2=O)c(C)n1-c1ccc(Br)cc1`: -1.32%; for `CC(C(=O)NC1CCCC1)n1c2ccccc2c2cnnc(O)c21` (stereo not shown): 8.95%.

In the case of `COc1ccc(-c2noc(CN(C(=O)c3cc(C)cc(C)c3)C(C)C)n2)cc1`, the “% Inhibition @ 10 uM” value is -2.14%.

For the molecule `COc1ccc(NC(=O)CN2CCN(c3ccc(C)c(Cl)c3)CC2)cc1`, the “% Inhibition @ 10 uM” value is reported as -1.41%. The same measure for `CCOC(=O)c1c(NC(=O)Cc2coc3ccc(C)cc23)sc2c1CCCC2`: 7.17%; for `Cc1ccc(C)c(CN2CCC(CNC(=O)CCc3nnc4ccc(N5CCCC5)nn34)CC2)c1`: 3.51%; for `COC(=O)c1scc(-c2ccccc2)c1S(=O)(=O)N1CCC(C)CC1`: -4.17%. On to `COc1ccc(C2C(C#N)=C(N)Oc3cc(C)oc(=O)c32)cc1C` (stereo not shown), for which the “% Inhibition @ 10 uM” value worked out at 3.1%. On to `Cc1cc(C)c(S(=O)(=O)NCC(=O)NCC2CCCO2)c(C)c1` (stereo not shown), for which the “% Inhibition @ 10 uM” value is recorded as -4.65%. Regarding `CN1CCC(N(C)Cc2ccc(F)c(Br)c2)CC1`, the “% Inhibition @ 10 uM” value is recorded as -0.192%. To `Nc1ncc(Br)cc1S(=O)(=O)NCCC(=O)NCCC1=CCCCC1` belongs -1.26%; to `CC1(C)Cc2c(sc3nc(O)n4ncnc4c23)CO1`, -5.38%. To `O=c1c2oc3ccccc3c2ncn1Cc1ccccc1Cl` belongs -2.67%; to `C=CCNC(=O)c1ccccc1NS(=O)(=O)c1ccc2c(c1)OCCO2`, 4.53%. `Cc1ccc(NC(=O)C2COc3ccccc3O2)nc1` (stereo not shown): the “% Inhibition @ 10 uM” value was -3.75%. To `CCOC(=O)NC(=O)/C(=C\Nc1ccc(NC(C)=O)cc1)C(C)=O` belongs 2.44%. To `COc1ccc(C2C3=C(NCCN=C3c3ccc(Cl)cc3)C(=O)N2c2ccccc2)cc1` (stereo not shown) belongs 8.92%. The same measure for `COC(=O)C1CCCN1Cc1ccc(O)c(OC)c1` (stereo not shown): -0.0648%; for `CCCN(CCC)C(=O)CSC1=NC(/C=C/c2ccc(OCC)cc2)=CC(C)(C)N1`: 3.29%. As for `COc1cccc(Oc2ccc(NC3=CC(=O)CC(C)(C)C3)cc2)c1`, the “% Inhibition @ 10 uM” value is listed as -4.48%.

With `O=C(NCc1ccc2c(c1)OCO2)C1CCN(C(=O)c2cnn(-c3ccccc3)c2-n2cccc2)CC1`, the “% Inhibition @ 10 uM” value stood at 4.95%. Consider `CCOC(=O)C1CCN(Cc2cccc(C)c2)CC1`, for which the “% Inhibition @ 10 uM” value is reported as -3.82%. The same measure for `Cc1cccc(NC(=O)CN(CCc2ccccc2)S(C)(=O)=O)c1`: -15.4%. The same measure for `O=C(NCc1ccccn1)c1cnn(-c2ccccc2)c1-n1cccc1`: 3.4%. To `O=C(O)C1CCCCC1C(=O)N1CCCCC1` (stereo not shown) belongs 4.12%; to `COC(=O)C1=C(O)/C(=C\c2ccccc2OC)N=C1C`, -0.711%.

As to `CC1CCN(S(=O)(=O)c2ccc(NC(=O)c3ccco3)cc2)CC1`, the “% Inhibition @ 10 uM” value is recorded as 4.09%. To `CCc1ccc2ncc(C(=O)c3ccccc3)c(N3CCOCC3)c2c1` belongs -7.3%. To `COc1cc(N)ccc1-c1ccc(N)cc1OC` belongs -1.22%; to `COc1ccc(C(=O)/C=C/c2cccnc2)cc1`, 0.00178%; to `Cc1ccc(Cn2cnc3ccccc3c2=O)cc1`, 2.09%. The same measure for `O=C(Nc1ccc(Br)cn1)c1ccc(COc2ccc(Cl)cc2)o1`: -1.33%.

With `CSc1ccccc1C(=O)Nc1ccc2c(c1)OC1(CCCCC1)O2`, the “% Inhibition @ 10 uM” value is recorded as -0.105%. The same measure for `CCOC(=O)c1c(C)[nH]c(C)c1S(=O)(=O)N(C)C1CCCCC1`: -4.02%. The same measure for `CC1(C)Cc2c(sc3ncn4nc(Cc5ccccc5)nc4c23)CO1`: 4.58%. To `O=c1c2nnn(Cc3ccccc3F)c2ncn1C/C=C/c1ccccc1` belongs 1.24%; to `CN(Cc1ccccc1)C(=O)C(CCS(C)(=O)=O)N1Cc2ccccc2C1=O` (stereo not shown), -2.69%. Take `COCCN1C(=O)C(O)=C(C(=O)c2ccccc2)C1c1ccc(C(C)C)cc1` (stereo not shown): the “% Inhibition @ 10 uM” value amounted to 4.66%.

Consider `O=c1/c(=C\c2ccc(F)cc2)sc2nc3ccccc3n12`, for which the “% Inhibition @ 10 uM” value is on record as 4.15%. On to `COC(=O)C1=C(C)N(C2CCCCC2)C(=O)/C1=C\c1ccc(Cl)cc1`, for which the “% Inhibition @ 10 uM” value came out at 3.43%. `Cc1c(C(=O)N2CCOCC2)oc2c1-c1nn(CC(=O)NCCN(C)C)cc1CC2`: the “% Inhibition @ 10 uM” value is 0.0171%. The same measure for `CCN(CC)c1ccc(NC(=O)c2ccccc2NC(=O)c2ccccc2)cc1`: 7.48%; for `CCCn1c2ccccc2c2nnc(SCC(=O)Nc3nc4c(s3)CCCC4)nc21`: 13.1%. Consider `CC(=O)Nc1ccc(C2C3=C(Nc4nc(O)nc(O)c42)C(=O)CC(C)(C)C3)cc1` (stereo not shown), for which the “% Inhibition @ 10 uM” value is -4.61%. To `N#CC1=C(N)Oc2c(oc(CO)cc2=O)C1c1ccccc1F` (stereo not shown) belongs -0.968%. The same measure for `CCC1CCCCN1C(=O)Cn1c(SCc2ccccc2F)nc2ccncc21` (stereo not shown): -2.37%; for `CCS(=O)(=O)N1CCCC(C(=O)NCc2ccc(C)cc2)C1` (stereo not shown): -1.79%. Take `CCN(CC)C(=O)C12CC3CCC(CC(C3)C1)C2`: the “% Inhibition @ 10 uM” value was -4.23%. To `O=S(=O)(c1cc(Cl)ccc1Cl)N1CCc2ccccc2C1` belongs 0.215%; to `Cc1ccc(-c2noc(CNC(=O)c3ccc(C)cc3C)n2)cc1`, -2.99%. On to `C=CCNC(=O)c1ccc(N2C(=O)c3ccccc3C2=O)cc1`, for which the “% Inhibition @ 10 uM” value is reported as 2.95%. To `COc1cc(OC)c(C2=NOC3C(OC)OC(OC)C23)c(OC)c1` (stereo not shown) belongs 0.793%; to `CC1CCC2C(=O)N(c3cccc(O)c3)C(=O)C2C1` (stereo not shown), -12.6%. Regarding `Cc1ccc(C(=O)OCC(=O)c2ccccc2)cc1`, the “% Inhibition @ 10 uM” value is given as -3.48%. To `COCCNC(=O)CSc1[nH]c(-c2ccccc2)nc1-c1ccccc1` belongs 3.48%. For `COc1cccc(C(=O)Nc2ccc(Br)cc2C)c1`, the “% Inhibition @ 10 uM” value is reported as 7.44%. `CCOC(=O)c1oc2ccc(S(=O)(=O)n3nc(-c4ccccc4)cc3N)cc2c1C`: the “% Inhibition @ 10 uM” value worked out at 1.15%. To `CCCCN(C)C(=O)c1nn(C)c2c1CSc1ccccc1-2` belongs 17%; to `CC(=O)c1ccc(NC(=O)C2CCCC2)cc1`, -2.98%; to `CCOC(=O)c1c(NC(=O)C2(C)Cc3ccccc3C(=O)O2)sc2c1CCCC2` (stereo not shown), -4.24%. To `Cc1nn(-c2ccc(F)cc2)c(-n2cccc2)c1C(=O)NCCCN1CCc2ccccc2C1` belongs -3.72%; to `Cc1ccc(NC(c2ccccc2)c2ccncc2)cc1` (stereo not shown), 8.99%. Regarding `COc1ccc2c(=O)c(Oc3ccc(C(C)(C)C)cc3)coc2c1`, the “% Inhibition @ 10 uM” value was -1.4%. The same measure for `COc1ccc(CNC(=O)CN(C)S(=O)(=O)c2ccc(Br)s2)cc1`: -3.87%. The same measure for `COc1ccccc1CNC(=O)/C(C#N)=C/c1ccc(OC)c(OC)c1OC`: -9.56%. The same measure for `COc1cccc(OC)c1C(=O)Nc1cccc2ccccc12`: -0.261%; for `COc1ccc(/C=C2/NC(=O)N(CC(=O)Nc3cccc(C)c3)C2=O)cc1O`: 9.79%.

In the case of `CC1CCN(c2ccc3nnc(CCC(=O)NC4CCCCC4)n3n2)CC1`, the “% Inhibition @ 10 uM” value stood at 0.842%. Consider `CN1CCN(S(=O)(=O)c2cccnc2N2CCN(CCO)CC2)CC1`, for which the “% Inhibition @ 10 uM” value is on record as -5.13%.

`Clc1cccc2c(NCCCN3CCOCC3)cnnc12`: the “% Inhibition @ 10 uM” value was found to be 0.182%. To `COc1ccc(Br)cc1CNc1cccc(C)c1` belongs -1.21%. Consider `NC(=O)C1CCN(C(=O)CCc2nnc3n(Cc4ccccc4Cl)c(=O)c4ccccc4n23)CC1`, for which the “% Inhibition @ 10 uM” value is -2.42%. To `O=C(CC1Sc2ccccc2NC1=O)Nc1ccccc1Cl` (stereo not shown) belongs -3.77%. Turning to `CN1C(=O)C2(C(C#N)=C(N)OC3=C2C(=O)CCC3)c2cc(Br)ccc21` (stereo not shown), the “% Inhibition @ 10 uM” value was -1.84%. To `C/N=C1\S/C(=C\c2ccc(N3CCOCC3)c(F)c2)C(=O)N1C` belongs -0.473%; to `O=C(Nc1ccc(Cl)cc1)/C(=C/c1ccc(Br)cc1)NC(=O)c1ccco1`, -2.87%.

These data come from article PMC6919601, “Identification of Plasmodium dipeptidyl aminopeptidase allosteric inhibitors by high throughput screening” (PLoS ONE, 2019).
